Measured values: the supplement of paper PMC9446081
The campaign covered roughly 39,000 compounds. About 220 (0.56%) showed activity. The list shows a part of the results.

Each compound was assayed on Escherichia coli K-12 BW25113 (assay: relative growth (OD600 normalised to plate interquartile mean) (fraction); higher = less growth inhibition, active = 0.2 or less). Conditions: 50 µM; LB; incubation time: overnight (16-24 h).
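Also: static incubation at 37 °C against the wild-type strain, values averaged over two biological replicates.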

Structure (SMILES)	relative growth
CC(C)=CCCC(C)=CCCC(C)=CCO ["trans,trans-FARNESOL"]	inactive: 0.916
C[C@@H]1CCCCO[C@@H](CN(C)C(=O)C2CCCCC2)[C@@H](C)CN([C@H](C)CO)C(=O)c2cc(NC(=O)CCC(F)(F)F)ccc2O1	inactive: 0.92
CCS(=O)(=O)Nc1ccc2c(c1)C(=O)N(C)C[C@H](OC)[C@@H](C)CN(CCC(F)(F)F)[C@@H](C)CO2	inactive: 0.961
C[C@@H]1CCCCO[C@H](CN(C)C(=O)C2CCCCC2)[C@@H](C)CN([C@H](C)CO)C(=O)c2cc(NC(=O)CCC(F)(F)F)ccc2O1	inactive: 1.02
COc1ccc(CN(C)C[C@H]2OCCCC[C@@H](C)Oc3ccc(NC(=O)Nc4ccc5c(c4)OCO5)cc3C(=O)N([C@@H](C)CO)C[C@H]2C)cc1	inactive: 0.994
CC(C)NC(=O)N(C)C[C@H]1OCCCC[C@@H](C)Oc2ccc(NC(=O)Nc3ccccc3)cc2C(=O)N([C@@H](C)CO)C[C@H]1C	inactive: 0.996
C[C@@H]1CN([C@H](C)CO)C(=O)c2cc(NC(=O)Nc3cccc4ccccc34)ccc2O[C@@H](C)CCCCO[C@H]1CN(C)Cc1ccncc1	inactive: 0.976
C[C@H]1CN([C@@H](C)CO)C(=O)c2cccc(NS(C)(=O)=O)c2O[C@@H]1CN(C)C(=O)Nc1ccc2c(c1)OCO2	inactive: 1.01
C[C@H]1CCCCO[C@@H](CN(C)C(=O)Nc2ccc(C(F)(F)F)cc2)[C@@H](C)CN([C@@H](C)CO)C(=O)c2cc(NS(=O)(=O)c3cn(C)cn3)ccc2O1	inactive: 1.01
Cc1noc(C)c1S(=O)(=O)Nc1ccc2c(c1)CC(=O)N([C@@H](C)CO)C[C@H](C)[C@H](CN(C)C(=O)Nc1ccccc1)O2	inactive: 0.999
Cc1noc(C)c1S(=O)(=O)Nc1ccc2c(c1)C(=O)N([C@H](C)CO)C[C@@H](C)[C@@H](CN(C)S(=O)(=O)c1cn(C)cn1)OCCCC[C@@H](C)O2	inactive: 1
C[C@@H]1CN([C@@H](C)CO)C(=O)Cc2cc(NC(=O)CCCN(C)C)ccc2O[C@H]1CN(C)S(C)(=O)=O	inactive: 1
C[C@H]1CN([C@@H](C)CO)C(=O)c2cc(NC(=O)Cn3cnnn3)ccc2O[C@@H]1CN(C)Cc1ccc(Cl)c(Cl)c1	inactive: 0.992
C[C@@H]1CCCCO[C@@H](CN(C)Cc2ccc(C(F)(F)F)cc2)[C@@H](C)CN([C@@H](C)CO)C(=O)c2cc(NC(=O)c3ccccc3)ccc2O1	inactive: 1.02
C[C@@H]1CN([C@@H](C)CO)C(=O)c2cc(NS(=O)(=O)c3ccccc3)ccc2O[C@@H](C)CCCCO[C@@H]1CN(C)C(=O)Nc1ccccc1	inactive: 1.01
CN(C)C1CCN(C(=O)c2cnc(-c3noc4cc(-c5cccc(C(F)(F)F)c5)ccc34)s2)CC1	inactive: 0.884
Nc1nc(F)nc2c1ncn2C1OC(COP(=O)(O)O)C(O)C1O (stereo not drawn)	inactive: 0.541
C[C@H]1CN([C@@H](C)CO)C(=O)Cc2cc(NS(=O)(=O)c3ccccc3)ccc2O[C@@H]1CN(C)Cc1ccncc1	inactive: 0.932
C[C@H]1CN([C@@H](C)CO)C(=O)c2cc(NS(=O)(=O)c3ccc(F)cc3)ccc2O[C@@H]1CN(C)Cc1ccc(-c2ccccc2)cc1	inactive: 1.02

Structure (SMILES)	relative growth
COc1ccc(S(=O)(=O)Nc2ccc3c(c2)CC(=O)N([C@@H](C)CO)C[C@@H](C)[C@@H](CN(C)S(=O)(=O)c2ccc(F)cc2)O3)cc1	inactive: 1.01
C[C@@H]1CN([C@H](C)CO)C(=O)c2cc(NS(C)(=O)=O)ccc2O[C@@H]1CN(C)S(=O)(=O)c1ccc(Cl)cc1	inactive: 1.01
C[C@@H]1CN([C@H](C)CO)C(=O)Cc2cc(NS(=O)(=O)c3cccs3)ccc2O[C@@H]1CN(C)S(C)(=O)=O	inactive: 0.999
Cc1noc(C)c1NC(=O)N(C)C[C@@H]1Oc2ncc(C#CC(C)(C)O)cc2C(=O)N([C@H](C)CO)C[C@@H]1C	inactive: 1
C[C@@H]1CN([C@@H](C)CO)C(=O)c2cc(C#CC3CCCC3)cnc2O[C@@H]1CN(C)S(=O)(=O)c1cccc(F)c1	inactive: 1.02
C[C@H](CO)N1C[C@H](C)[C@H](CN(C)C(=O)Nc2ccc3c(c2)OCO3)Oc2ccc(NC(=O)C3CC3)cc2C1=O	inactive: 1
CC(C)NC(=O)Nc1ccc2c(c1)CC(=O)N([C@H](C)CO)C[C@H](C)[C@@H](CN(C)S(=O)(=O)c1ccc(F)cc1)O2	inactive: 0.992
O=C(CN1CCOCC1)NCC[C@@H]1CC[C@H](NC(=O)Nc2ccccc2)[C@H](CO)O1	inactive: 1.02
COc1ccc(S(=O)(=O)N(C)C[C@@H]2OCCCC[C@@H](C)Oc3ccc(NC(=O)Nc4ccc5c(c4)OCO5)cc3C(=O)N([C@@H](C)CO)C[C@H]2C)cc1	inactive: 1.02
O=C(CCNc1n[nH]c(=O)[nH]c1=O)NCc1ccco1	inactive: 0.998
COc1ccc(-n2nc(CCC(=O)N(C)O)cc2-c2ccc(Cl)cc2)cc1	inactive: 0.861
CN(C)Cc1cn(CC[C@@H]2CC[C@H](NC(=O)Cc3cccnc3)[C@@H](CO)O2)nn1	inactive: 1
C[C@H](CO)N1C[C@H](C)[C@@H](CN(C)C(=O)Nc2cccc3ccccc23)Oc2ccc(NC(=O)Nc3ccc4c(c3)OCO4)cc2CC1=O	inactive: 0.99
O=C(O)c1cc2c([nH]c1=O)CCC[C@@H]2O	inactive: 1.02
CCN1CCN(C(=O)/C=C\C(=O)O)CC1	inactive: 0.894
CC(C)NC(=O)[C@@]1(c2ccc([N+](=O)[O-])cc2)CC(=O)N(CC23CC4CC(CC(C4)C2)C3)[C@@H]1c1ccc(CO)cc1	inactive: 1.03
C[C@@H]1CN([C@H](C)CO)C(=O)c2cc(NC(=O)Nc3ccc(F)cc3)ccc2O[C@@H](C)CCCCO[C@@H]1CN(C)Cc1ccc(Cl)c(Cl)c1	inactive: 1.02
C[C@H]1CN([C@@H](C)CO)C(=O)c2cc(-c3cccnc3)cnc2O[C@@H]1CN(C)Cc1ccc(Oc2ccccc2)cc1	inactive: 1.02
CC(C)CC(=O)Nc1cncc(-c2ccc3[nH]nc(-c4nc5cncc(-c6cccc(F)c6)c5[nH]4)c3c2)c1	inactive: 1.04
